One experiment relates to HSkMC. The experiment can be described thus: cytotoxicity call (relative viability < 0.9). The conditions noted are these: 10 µM.
The next experiment deals with HepG2. The experiment can be described thus: cytotoxicity call (relative viability < 0.9). To be noted: 10 µM.
The test system of a further experiment is S. aureus RN4220. The experiment in a line: growth inhibition call (relative growth <= 0.2). To be noted: 50 µM.

Some of the results follow.

On to `C[C@@H]1CN([C@H](C)CO)C(=O)c2cc(NC(=O)Cc3ccccc3)ccc2O[C@H]1CN(C)S(=O)(=O)c1cccs1`, for which the cytotoxicity call in the experiment with HSkMC and in the experiment with HepG2 was “inactive” in each case. Further, the growth inhibition call with S. aureus RN4220 is “inactive”.

Take `C[C@H]1CN([C@@H](C)CO)C(=O)Cc2cc(NC(=O)c3ccncc3)ccc2O[C@H]1CN(C)Cc1ccc(Oc2ccccc2)cc1`: the cytotoxicity call with HSkMC and in the experiment on HepG2 was “inactive” throughout. In the experiment on S. aureus RN4220, the growth inhibition call was “inactive”.

As for `Cc1noc(C)c1NC(=O)Nc1ccc2c(c1)CC(=O)N([C@H](C)CO)C[C@H](C)[C@@H](CN(C)Cc1ccc(C(F)(F)F)cc1)O2`, the cytotoxicity call in the experiment on HSkMC and with HepG2 was “inactive” throughout. Moreover, the growth inhibition call with S. aureus RN4220 was “inactive”.

With `C[C@@H]1CN([C@H](C)CO)C(=O)Cc2cc(NC(=O)CCCN(C)C)ccc2O[C@@H]1CN(C)Cc1ccc(Oc2ccccc2)cc1`, the cytotoxicity call with HSkMC is “inactive”. The cytotoxicity call with HepG2 was “active”. Further, in the experiment with S. aureus RN4220, the growth inhibition call is “inactive”.

Regarding `C[C@@H]1CCCCO[C@@H](CN(C)S(=O)(=O)c2ccccc2)[C@@H](C)CN([C@H](C)CO)C(=O)c2cc(NC(=O)C3CCCCC3)ccc2O1`, the cytotoxicity call in the experiment with HSkMC and with HepG2 was “inactive” in each case. Also, the growth inhibition call with S. aureus RN4220 was “inactive”.

`Cc1noc(C)c1NC(=O)Nc1ccc2c(c1)C(=O)N([C@H](C)CO)C[C@H](C)[C@@H](CN(C)C(=O)NC1CCCCC1)OCCCC[C@H](C)O2`: the cytotoxicity call in the experiment on HSkMC and with HepG2 was “inactive” each time. Moreover, the growth inhibition call in the experiment on S. aureus RN4220 is “inactive”.

On to `C[C@@H]1CN([C@H](C)CO)C(=O)Cc2cc(NC(=O)Cn3cnnn3)ccc2O[C@H]1CN(C)Cc1ccc(C(F)(F)F)cc1`, for which the cytotoxicity call with HSkMC and in the experiment on HepG2 was “inactive” in each case. In the experiment with S. aureus RN4220, the growth inhibition call is “inactive”.

On to `COCC(=O)Nc1ccc2c(c1)C(=O)N(C)C[C@H](OC)[C@H](C)CN(C(=O)Cc1cccnc1)[C@H](C)CO2`, for which the cytotoxicity call with HSkMC and in the experiment on HepG2 was “inactive” each time. The growth inhibition call with S. aureus RN4220 is “inactive”.

On to `Cc1cc(O)c2c(c1)C(=O)c1c(c(O)cc(O)c1-c1c(O)cc(O)c3c1C(=O)c1cc(C)cc(O)c1C3=O)C2=O`, for which the cytotoxicity call in the experiment with HSkMC and in the experiment with HepG2 was “inactive” throughout. The growth inhibition call with S. aureus RN4220 was “inactive”.

For the compound `C[C@@H]1CCCCO[C@@H](CN(C)C(=O)c2ccccc2)[C@H](C)CN([C@H](C)CO)C(=O)c2cc(NC(=O)Cc3ccccc3)ccc2O1`, the cytotoxicity call in the experiment with HSkMC and in the experiment on HepG2 was “inactive” in each case. The growth inhibition call in the experiment with S. aureus RN4220 was “inactive”.

For the compound `C[C@H](CO)N1C[C@H](C)[C@H](CN(C)C(=O)NC2CCCCC2)Oc2ccc(NC(=O)Nc3cccc4ccccc34)cc2CC1=O`, the cytotoxicity call in the experiment on HSkMC and with HepG2 was “inactive” in each case. Also, the growth inhibition call in the experiment on S. aureus RN4220 is “inactive”.

`Cc1cccc(N2CCC(N)CC2)c1`: the cytotoxicity call with HSkMC and in the experiment on HepG2 was “inactive” in each case. Also, the growth inhibition call in the experiment with S. aureus RN4220 was “inactive”.

On to `C[C@H](CO)N1C[C@H](C)[C@H](CN(C)S(=O)(=O)c2ccc(Cl)cc2)OCCCC[C@H](C)Oc2ccc(NC(=O)Nc3cccc4ccccc34)cc2C1=O`, for which the cytotoxicity call in the experiment with HSkMC and in the experiment on HepG2 was “inactive” in each case. Besides, the growth inhibition call in the experiment with S. aureus RN4220 is “inactive”.

Turning to `NCCc1c(C(=O)O)[nH]c2ccc(Br)cc12`, the cytotoxicity call in the experiment on HSkMC and with HepG2 was “inactive” each time. Also, the growth inhibition call with S. aureus RN4220 was “inactive”.

With `Cn1cnc(S(=O)(=O)N2C[C@H](O)COC[C@H]3O[C@@H](CC(=O)NCc4ccc(F)cc4)CC[C@@H]32)c1`, the cytotoxicity call with HSkMC and with HepG2 was “inactive” throughout. Moreover, the growth inhibition call with S. aureus RN4220 is “inactive”.

As for `O=C(C[C@H]1CC[C@@H]2[C@H](COC[C@H](O)CN2S(=O)(=O)c2ccccc2)O1)N[C@@H]1CCN(Cc2ccccc2)C1`, the cytotoxicity call in the experiment with HSkMC and in the experiment with HepG2 was “inactive” in each case. The growth inhibition call with S. aureus RN4220 was “inactive”.

Turning to `Cn1cnc(CCNC(=O)C[C@H]2CC[C@H]3[C@@H](COC[C@H](O)CN3C(=O)Nc3ccc(Cl)cc3)O2)c1`, the cytotoxicity call in the experiment with HSkMC and in the experiment on HepG2 was “inactive” each time. Further, the growth inhibition call with S. aureus RN4220 was “inactive”.

Take `COc1ccc2c3c([nH]c2c1)[C@H](CO)N(C[C@]13CN(Cc2ccccc2Cl)C1)S(=O)(=O)c1cn(cn1)C`: the cytotoxicity call in the experiment on HSkMC and with HepG2 was “inactive” in each case. In addition, the growth inhibition call in the experiment on S. aureus RN4220 is “inactive”.

As for `COC(=O)[C@@H]1OC(=O)[C@H]2O[C@@]23[C@]2(C)[C@@H](O)C[C@H]4C(C)(C)[C@H](OC(C)=O)C[C@H](OC(C)=O)[C@]4(C)[C@@H]2CC[C@@]13C`, the cytotoxicity call in the experiment with HSkMC and in the experiment on HepG2 was “inactive” each time. The growth inhibition call in the experiment on S. aureus RN4220 is “inactive”.

In the case of `CC(C)C[C@@H](N)C(=O)N[C@H]1C(=O)N[C@@H](CC(N)=O)C(=O)N[C@H]2C(=O)N[C@H]3C(=O)N[C@H](C(=O)N[C@H](C(=O)O)c4cc(O)cc(O)c4-c4cc3ccc4O)[C@H](O)c3ccc(c(Cl)c3)Oc3cc2cc(c3O[C@@H]2O[C@H](CO)[C@@H](O)[C@H](O)[C@H]2O[C@H]2C[C@](C)(N)[C@H](O)[C@H](C)O2)Oc2ccc(cc2Cl)[C@H]1O`, the cytotoxicity call with HSkMC and in the experiment on HepG2 was “inactive” each time. Also, the growth inhibition call with S. aureus RN4220 was “active”.

For `CC(CCC(=O)O)C1CCC2C3CCC4CC(O)CCC4(C)C3CC(O)C12C` (centres undefined), the cytotoxicity call with HSkMC and in the experiment on HepG2 was “inactive” in each case. Further, the growth inhibition call with S. aureus RN4220 is “inactive”.

Turning to `O=C(C[n+]1ccc(/C=N/O)cc1)N1CCCCC1`, the cytotoxicity call in the experiment on HSkMC (human skeletal muscle cells) and in the experiment on HepG2 was “inactive” throughout. In addition, in the experiment with S. aureus RN4220, the growth inhibition call is “inactive”.

As for `COc1ccc(NC(=O)Nc2ccc3c(c2)C(=O)N([C@H](C)CO)C[C@@H](C)[C@H](CN(C)C(=O)c2ccccc2)OCCCC[C@@H](C)O3)cc1`, the cytotoxicity call with HSkMC and in the experiment on HepG2 was “inactive” in each case. Also, the growth inhibition call in the experiment with S. aureus RN4220 is “inactive”.

These data come from the antibiotic and cytotoxicity screens of Wong et al. (2023).
